Experimental data reported in the supplement of paper PMC8728848.
The other results are listed elsewhere or left out.

Key:
Assay in all cases: glycan array binding signal (z-score within array); higher = stronger binding
Details in all cases: glycan notation: IUPAC condensed, linker removed
[1] = target: Neu5Ac(a2-3)Gal(b1-3)GalNAc
In short: (§1)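 The binding signal is a Z-score computed within each array. Data were drawn from 3228 arrays in the Consortium for Functional Glycomics database, restricted to those with a known protein sequence. Scores were averaged over arrays of the same protein sequence at different concentrations or buffers, and over linkers, and negative values can be taken as non-binding.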

[2] = target: Neu5Ac(a2-3)Gal(b1-3)GalNAc(b1-3)Gal(a1-4)Gal(b1-4)Glc
In short: as §1

[3] = target: Neu5Ac(a2-3)Gal(b1-3)GalNAc(b1-3)Gal(b1-4)GlcNAc
In short: as §1

[4] = target: Neu5Ac(a2-3)Gal(b1-3)GalNAc(b1-4)[Neu5Ac(a2-3)]Gal(b1-4)Glc
In short: as §1

[5] = target: Neu5Ac(a2-3)Gal(b1-3)GalNAc(b1-4)[Neu5Ac(a2-8)Neu5Ac(a2-3)]Gal(b1-4)Glc
In short: as §1

[6] = target: Neu5Ac(a2-3)Gal(b1-3)GalNAc6S
In short: as §1

[7] = target: Neu5Ac(a2-3)Gal(b1-3)GlcNAc
In short: as §1

[8] = target: Neu5Ac(a2-3)Gal(b1-3)GlcNAc(b1-2)Man(a1-3)[Neu5Ac(a2-3)Gal(b1-3)GlcNAc(b1-2)Man(a1-6)]Man(b1-4)GlcNAc(b1-4)GlcNAc
In short: as §1

[9] = target: Neu5Ac(a2-3)Gal(b1-3)GlcNAc(b1-3)Gal(b1-3)GlcNAc
In short: as §1

[10] = target: Neu5Ac(a2-3)Gal(b1-3)GlcNAc(b1-3)Gal(b1-4)GlcNAc
In short: as §1

[11] = target: Neu5Ac(a2-3)Gal(b1-3)GlcNAc(b1-3)GalNAc
In short: as §1

[12] = target: Neu5Ac(a2-3)Gal(b1-3)GlcNAc6S
In short: as §1

[13] = target: Neu5Ac(a2-3)Gal(b1-3)[Fuc(a1-4)]GlcNAc
In short: as §1

[14] = target: Neu5Ac(a2-3)Gal(b1-3)[Fuc(a1-4)]GlcNAc(b1-3)Gal(b1-3)[Fuc(a1-4)]GlcNAc
In short: as §1

[15] = target: Neu5Ac(a2-3)Gal(b1-3)[Fuc(a1-4)]GlcNAc(b1-3)Gal(b1-4)[Fuc(a1-3)]GlcNAc
In short: as §1

[16] = target: Neu5Ac(a2-3)Gal(b1-3)[Neu5Ac(a2-3)Gal(b1-4)]GlcNAc
In short: as §1

[17] = target: Neu5Ac(a2-3)Gal(b1-3)[Neu5Ac(a2-6)]GalNAc
In short: as §1

[18] = target: Neu5Ac(a2-3)Gal(b1-4)Glc
In short: as §1

[19] = target: Neu5Ac(a2-3)Gal(b1-4)GlcNAc
In short: as §1

[20] = target: Neu5Ac(a2-3)Gal(b1-4)GlcNAc(b1-2)Man(a1-3)[GlcNAc(b1-2)Man(b1-4)GlcNAc(b1-2)Man(a1-6)]Man(b1-4)GlcNAc(b1-4)GlcNAc
In short: as §1

[21] = target: Neu5Ac(a2-3)Gal(b1-4)GlcNAc(b1-2)Man(a1-3)[Neu5Ac(a2-6)Gal(b1-4)GlcNAc(b1-2)Man(a1-6)]Man(b1-4)GlcNAc(b1-4)GlcNAc
In short: as §1

[22] = target: Neu5Ac(a2-3)Gal(b1-4)GlcNAc(b1-3)Gal
In short: as §1

[23] = target: Neu5Ac(a2-3)Gal(b1-4)GlcNAc(b1-3)Gal(b1-3)GlcNAc
In short: as §1

[24] = target: Neu5Ac(a2-3)Gal(b1-4)GlcNAc(b1-3)Gal(b1-4)GlcNAc
In short: as §1

[25] = target: Neu5Ac(a2-3)Gal(b1-4)GlcNAc(b1-3)Gal(b1-4)GlcNAc(b1-3)Gal(b1-4)GlcNAc
In short: as §1

[26] = target: Neu5Ac(a2-3)Gal(b1-4)GlcNAc(b1-3)Gal(b1-4)[Fuc(a1-3)]GlcNAc
In short: as §1

[27] = target: Neu5Ac(a2-3)Gal(b1-4)GlcNAc(b1-3)GalNAc
In short: as §1

[28] = target: Neu5Ac(a2-3)Gal(b1-4)GlcNAc(b1-6)[Gal(b1-3)]GalNAc
In short: as §1

[29] = target: Neu5Ac(a2-3)Gal(b1-4)GlcNAc(b1-6)[Neu5Ac(a2-3)Gal(b1-3)]GalNAc
In short: as §1

[30] = target: Neu5Ac(a2-3)Gal(b1-4)GlcNAc6S
In short: as §1

[31] = target: Neu5Ac(a2-3)Gal(b1-4)[Fuc(a1-3)]GlcNAc
In short: as §1

[32] = target: Neu5Ac(a2-3)Gal(b1-4)[Fuc(a1-3)]GlcNAc(b1-3)Gal
In short: as §1

[33] = target: Neu5Ac(a2-3)Gal(b1-4)[Fuc(a1-3)]GlcNAc(b1-3)Gal(b1-4)GlcNAc
In short: as §1

[34] = target: Neu5Ac(a2-3)Gal(b1-4)[Fuc(a1-3)]GlcNAc(b1-3)Gal(b1-4)[Fuc(a1-3)]GlcNAc(b1-3)Gal(b1-4)[Fuc(a1-3)]GlcNAc
In short: as §1

[35] = target: Neu5Ac(a2-3)Gal(b1-4)[Fuc(a1-3)]GlcNAc(b1-3)GalNAc
In short: as §1

[36] = target: Neu5Ac(a2-3)Gal(b1-4)[Fuc(a1-3)]GlcNAc(b1-6)[Gal(b1-3)]GalNAc
In short: as §1

[37] = target: Neu5Ac(a2-3)Gal(b1-4)[Fuc(a1-3)]GlcNAc(b1-6)[Neu5Ac(a2-3)Gal(b1-3)]GalNAc
In short: as §1

[38] = target: Neu5Ac(a2-3)Gal(b1-4)[Fuc(a1-3)]GlcNAc6S
In short: as §1

[39] = target: Neu5Ac(a2-3)Gal6S(b1-4)GlcNAc
In short: as §1

[40] = target: Neu5Ac(a2-3)Gal6S(b1-4)[Fuc(a1-3)]GlcNAc
In short: as §1

[41] = target: Neu5Ac(a2-3)GalNAc
In short: as §1

[42] = target: Neu5Ac(a2-3)GalNAc(b1-4)GlcNAc
In short: as §1

[43] = target: Neu5Ac(a2-3)[GalNAc(b1-4)]Gal(b1-4)Glc
In short: as §1

[44] = target: Neu5Ac(a2-3)[GalNAc(b1-4)]Gal(b1-4)GlcNAc
In short: as §1

[45] = target: Neu5Ac(a2-3)[GalNAc(b1-4)]Gal(b1-4)GlcNAc(b1-3)GalNAc
In short: as §1

B1: PILRa (Homo sapiens), Q9UKJ1 (protein)
chain: MGRPLLLPLLPLLLPPAFLQPSGSTGSGPSYLYGVTQPKHLSASMGGSVEIPFSFYYPWELATAPDVRISWRRGHFHRQSFYSTRPPSIHKDYVNRLFLNWTEGQKSGFLRISNLQKQDQSVYFCRVELDTRSSGRQQWQSIEGTKLSITQAVTTTTQRPSSMTTTWRLSSTTTTTGLRVTQGKRRSDSWHISLETAVGVAVAVTVLGIMILGLICLLRWRRRKGQQRTKATTPAREPFQNTEEPYENIRNEGQNTDPKLNPKDDGIVYASLALSSSTSPRAPPSHRPLKSPQNETLYSVLKA
glycan array binding signal (z-score) [1]: -0.122
glycan array binding signal (z-score) [2]: -0.314
glycan array binding signal (z-score) [3]: -0.44
glycan array binding signal (z-score) [4]: -0.281
glycan array binding signal (z-score) [5]: -0.081
glycan array binding signal (z-score) [6]: -0.182
glycan array binding signal (z-score) [7]: 0.854
glycan array binding signal (z-score) [8]: -0.057
glycan array binding signal (z-score) [9]: -0.15
glycan array binding signal (z-score) [10]: -0.226
glycan array binding signal (z-score) [11]: -0.354
glycan array binding signal (z-score) [12]: -0.397
glycan array binding signal (z-score) [13]: -0.307
glycan array binding signal (z-score) [14]: -0.282
glycan array binding signal (z-score) [15]: -0.241
glycan array binding signal (z-score) [16]: -0.243
glycan array binding signal (z-score) [17]: -0.132
glycan array binding signal (z-score) [18]: -0.248
glycan array binding signal (z-score) [19]: -0.257
glycan array binding signal (z-score) [20]: 0.008
glycan array binding signal (z-score) [21]: -0.293
glycan array binding signal (z-score) [22]: -0.256
glycan array binding signal (z-score) [23]: -0.212
glycan array binding signal (z-score) [24]: 1.17
glycan array binding signal (z-score) [25]: -0.327
glycan array binding signal (z-score) [26]: -0.125
glycan array binding signal (z-score) [27]: 0.119
glycan array binding signal (z-score) [28]: -0.258
glycan array binding signal (z-score) [29]: -0.032
glycan array binding signal (z-score) [30]: -0.16
glycan array binding signal (z-score) [31]: 0.098
glycan array binding signal (z-score) [32]: -0.322
glycan array binding signal (z-score) [33]: -0.388
glycan array binding signal (z-score) [34]: -0.295
glycan array binding signal (z-score) [35]: 0.415
glycan array binding signal (z-score) [36]: 0.986
glycan array binding signal (z-score) [37]: 0.077
glycan array binding signal (z-score) [38]: -0.092
glycan array binding signal (z-score) [39]: -0.323
glycan array binding signal (z-score) [40]: -0.282
glycan array binding signal (z-score) [41]: -0.108
glycan array binding signal (z-score) [42]: -0.314
glycan array binding signal (z-score) [43]: -0.3
glycan array binding signal (z-score) [44]: -0.374
glycan array binding signal (z-score) [45]: -0.248
